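A five-concentration, 48-hour dose response in 96-well plates underlies each endpoint, interpolated linearly between surrounding concentrations. The concentration for full growth arrest is given as TGI.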 The source holds more than one record for some entries. The other results are left out here. The source may hold further records. For part of these data: A record mostly stands for its own series of concentrations, not given here; a value can be the end of its range. For part of these data: Values that stand side by side are repeats (runs, samples, wells, individuals or studies). What stands in brackets tells the records apart. The letters are not those of the source and start again with each entry.
Legend:
Experiment in all cases: DTP human tumour cell line panel, 48 h
[1] = test system: SF-295 CNS
[2] = test system: SNB-19 CNS
[3] = test system: 786-0 renal
[4] = test system: CCRF-CEM leukemia
[5] = test system: HL-60(TB) leukemia
[6] = test system: MOLT-4 leukemia
[7] = test system: HCC-2998 colon
[8] = test system: MALME-3M melanoma
[9] = test system: NCI-H460 lung
[10] = test system: OVCAR-8 ovarian
[11] = test system: T-47D breast
[12] = test system: ACHN renal
[13] = test system: M14 melanoma
[14] = test system: NCI/ADR-RES ovarian

For `COc1cc2c(c(OC)c1OC)-c1ccc(SC)c(=O)cc1[C@@H](NC(=O)c1ccc(F)cc1)CC2`, the TGI [1] was 69.5 nM and 22.5 µM and the TGI [2] was 62.8 nM and 16.3 µM.

For `CCCC(=O)Nc1cn(COC)c(C(=O)N2C[C@H]3C[C@@]34C2=CC(=O)c2[nH]cc(C)c24)n1`, the TGI [3] was 50 µM and 4.65 µM, the TGI [4] was 3.37 µM and > 100 µM and the TGI [5] was 4.52 µM and > 100 µM. For the same compound, the TGI [6] was 2.79 µM and > 100 µM.

For `C=C1C(=O)C23CC1CCC2C12CO[C@@]3(O)[C@@H](O)C1C(C)(C)C=CC2=O` (stereo partly drawn), the TGI [4] was 2.29 µM and > 100 µM, the TGI [7] was 2.89 µM and 40.1 µM and the TGI [5] was 1.18 µM and > 100 µM. The TGI [8] was 1.41 µM and 25.7 µM, the TGI [9] was 1.46 µM and 30 µM and the TGI [10] was 653 nM and 14.4 µM. The TGI [2] was 4.92 µM and 56.7 µM.

`O=C(CCl)Nc1ccc(C(=O)N/N=C/c2ccc(Cl)cc2)cc1` was tested, and the TGI [11] was 6.83 µM and 438 nM.

For `Oc1cccc(-c2nc(N3CCOCC3)c3oc4ncccc4c3n2)c1`, the TGI [12] was 4.11 µM [sample A, mean of 2 tests] and > 100 µM [sample B, 1 test], the TGI [5] was 1.22 µM [sample A, 1 test] and > 100 µM [sample B, mean of 2 tests] and the TGI [13] was 3.09 µM [sample A, mean of 2 tests] and > 100 µM [sample B, 1 test]. The TGI [14] was 2.83 µM [sample A, 1 test] and > 37.8 µM [sample B, mean of 2 tests].

Source: PubChem BioAssay (NCI)
